Measurements from PubChem BioAssay AID1508623 (National Center for Advancing Translational Sciences (NCATS), 2021).
Out of some 48,000 compounds screened, about 450 (0.94%) were called active. Another 19% or so got no clear call; they are omitted. Calls follow the shape of the dose curve; as a rule, active = well fitted inhibition curve with a large enough effect; inconclusive = small, poorly fitted or top-dose-only effect; inactive = no such curve, though single readings can be large or run the other way. Some of the results follow.

Test: Primary qHTS for Identification of Small Molecule Inhibitors of Huntingtin Promoter Activity; also: nearly all actives have a fitted effect of over 50% in size
Details: HEK293 HTT promoter firefly luciferase reporter (activity 0% = vehicle and -100% = no light), 24 h; series mostly up to 57.5 µM; activity change, negative = inhibition: at the top concentration
Procedure, shortened: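 Quantitative HTS used concentration series of up to 57.5 uM final on HEK293 luciferase reporter cells, 24 h at 37 degrees C. Readout was Dual-Glo firefly luminescence.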

Activity change, negative = inhibition, inactive:
Cc1ccc2c(c1)-c1cc(C)nn1C(c1cc(Br)ccc1O)N2 (stereo not drawn) 5.67%
CCNC(=O)[C@H]1O[C@@H](n2cnc3c(N)nc(NCCc4ccc(CCC(=O)O)cc4)nc32)[C@H](O)[C@H]1O -4.82%
O=S(=O)(Nc1nc2n(n1)C(c1ccc(F)cc1)C=C(c1ccccc1)N2)c1ccccc1 (stereo not drawn) -5.41%
COC(=O)c1ccc2c(=O)n(CCCCCC(=O)NCc3ccc(Cl)cc3)c(=O)[nH]c2c1 -40.2%
Cc1ccc2ncc(C(=O)Nc3ccc(F)cc3F)c(=O)n2c1 35.9%
Cc1cc(C)c2c(=O)cc(C(=O)Nc3ccccc3C(F)(F)F)oc2c1 -11.5%
Cc1cc(NC(=O)CCS(=O)(=O)c2cc3c4c(c2)CCN4C(=O)CC3)ccc1Br -12.9%
CCOC(=O)c1c(-c2ccc(Br)cc2)csc1NC(=O)c1ccc(F)cc1 -6.22%
COC(=O)c1ccccc1NC(=O)CSc1nc2ccccc2nc1Cc1ccccc1OC 1.43%
CN(C(=O)c1cc2nc(-c3ccco3)cc(C(F)(F)F)n2n1)c1ccc(OC(F)(F)Cl)cc1 3.19%
Cc1ccc(CSc2cn(CC(=O)N3CCCC3)c3ccccc23)cc1 21%
O=C(CCS(=O)(=O)c1cc(Br)cc2c1N(C(=O)C1CC1)CC2)NCc1ccc(Cl)cc1 -28.7%
O=C(Nc1cc(-c2nc3ccccc3o2)ccc1Cl)c1ccc(N2CCCCC2)c([N+](=O)[O-])c1 46.9%
CCN(Cc1ccncc1)C(=O)C(CO)c1ccccc1 (stereo not drawn) -2.43%
CN(C)CCOC1=Cc2ccccc2Sc2ccc(Cl)cc21 -7.18%
Cc1ccc(NC(=O)Cn2cc(S(=O)(=O)c3ccc(C)cc3)c(=O)c3cc4c(cc32)OCO4)cc1 -18.7%
Cc1ccc(-c2nc(SCCOc3ccccc3C)n3[nH]c(=O)cc3n2)cc1 -2.31%
CCc1ccccc1N(CC)C(=O)c1c(C)oc2ncnc(N3CCOCC3)c12 0.839%
CCOC(=O)C1CCN(c2nc3c(S(=O)(=O)c4ccccc4)nnn3c3ccsc23)CC1 -3.32%
COc1ccc(NC(=O)Nc2nnc(C)s2)cc1 31.2%
Cc1ccccc1C(=O)Nc1ccc(OCc2cc(=O)n3cccc(C)c3n2)cc1 -1.46%
CC1=C(c2ccc(C)c(C)c2)S(=O)(=O)N=C1N1CCC(C(=O)N2CCC(C(N)=O)CC2)CC1 -8.25%
O=c1c2oc3ccccc3c2n(Cc2ccc(Cl)cc2)c(=O)n1Cc1ccco1 -19.7%
O=C1COc2cc(S(=O)(=O)NCc3ccco3)c(Cl)cc2N1 -1.83%
Cc1cccc(CN2CCC(CNC(=O)c3c(C)oc4ncnc(N5CCCCC5)c34)CC2)c1 -3.44%
CC(=O)N1CCOc2cc(S(=O)(=O)NC(C)c3ccccc3)c(Cl)cc21 (stereo not drawn) -15.1%
CCN(CC)CCNC(=O)c1c(C)oc2ncn(C)c(=O)c12 10.3%
CCN(CC)CC#CCOC(=O)C(O)(c1ccccc1)C1CCCCC1 (stereo not drawn) -0.97%
Cc1oc2ccc(O)c(CN(C)Cc3ccccc3)c2c1C(=O)Nc1ccccc1 -16.7%
Cn1cnc(S(=O)(=O)N2CCC(C(=O)NCc3ccccc3Cl)CC2)c1 -5.35%
CCN(c1ccccc1)c1nnc(NC(=O)Nc2ccc(Br)cc2)s1 21.2%
Cc1ncc([N+](=O)[O-])n1CCO
COc1cccc(NC(=O)CSc2nc3ccc(NC(=O)c4cccs4)cc3s2)c1 -6.63%
Cc1ccc(NC(=O)Nc2nnc(N3CCCC3)s2)cc1 13.9%
CCOC(=O)c1c(NC(=O)/C=C/c2ccc(C(C)C)cc2)sc2c1CCC2 -5.09%
COC(=O)Nc1nc2ccc(C(=O)C3CC3)cc2[nH]1 -0.821%
CNS(=O)(=O)c1cn(CC(=O)N2CCN(c3ccccc3F)CC2)cc1S(=O)(=O)NC 1.79%
CCc1ccc(OC(C)c2nc(-c3ccc(-n4cccc4)cc3)no2)cc1 (stereo not drawn) -17.3%
OC(CCN1CCCCC1)(c1ccccc1)C1CC2C=CC1C2 (stereo not drawn)
O=S(=O)(NCc1csc(-c2ccccc2)n1)c1cccc(F)c1 -9.05%
Cc1ccc(CN(Cc2ccco2)C(=O)COc2ccccc2C)cc1 -24.8%
CCOC(=O)c1ccc(NC(=O)CCc2c(C)nc3c(c(C)nn3-c3ccccc3)c2C)cc1 -11.1%
CC(=O)c1ccc(NC(=O)CCc2c(C)nc3c(c(C)nn3-c3ccc(C)cc3)c2C)cc1 32.8%
COc1ccccc1NC(c1ccc(Cl)cc1)c1nnc(-c2cccc(F)c2)o1 (stereo not drawn) -18.3%
Cc1nn2c(=O)cc(CN(C)c3ccccc3)nc2s1 -10%
O=C(COc1ccccc1Cl)Nc1cc(-c2ccccc2F)nn1-c1ccccc1 3.31%
Cc1cc(C)cc(NC(=O)CN(c2cc(C(F)(F)F)ccc2Cl)S(=O)(=O)c2ccccc2)c1 -28.9%
O=C(CCS(=O)(=O)c1nc(-c2cccs2)cc(C(F)(F)F)n1)Nc1ccc(OC(F)(F)F)cc1 -3.15%
COc1ccc(C2c3c(oc4ccccc4c3=O)C(=O)N2Cc2ccc3c(c2)OCO3)cc1 (stereo not drawn) -2.22%
COC(=O)c1ccccc1NC(=O)C1=CC(c2ccc(C)cc2)=NS(=O)(=O)N1C -8.74%
COc1ccc(OC)c(NC(=O)c2cc3c(n(-c4ccc(Cl)cc4)c2=O)CC(C)(C)CC3=O)c1 -12.6%
O=C(CN1CCN(Cc2ccc(F)cc2)C1=O)NCc1ccccc1Cl -5.77%
COc1cccc(-c2nn(C)c3sc(C(=O)NCc4cc(OC)ccc4OC)cc23)c1 -26.9%
CCN(CC)CCSC(=O)C(c1ccccc1)c1ccccc1 8.29%
C#CCN(C)Cc1ccccc1 6.61%
CCN1c2ccccc2-n2cccc2C12CCN(C(=O)Nc1ccccc1C(F)(F)F)CC2 -12.3%
CCOc1ccc(OCC)c(NC(=O)C2CCCN(S(=O)(=O)c3ccc4c(c3)oc(=O)n4C)C2)c1 (stereo not drawn) -5.91%
CCOc1ccc(CNC(=O)Cn2c(=O)c3cccn3c3ccc(F)cc32)cc1 -0.513%
Cc1cccc(-c2nc(SCCCOc3ccccc3Cl)n3[nH]c(=O)cc3n2)c1 -4.27%
Cc1cc(C)cc(-n2c(SCC(=O)N3CCc4ccccc43)nc3c([nH]c4ccccc43)c2=O)c1 -10.2%
Cn1nc(C(=O)N2CCN(c3ccc(Cl)cc3)CC2)c2c1-c1ccccc1SC2 -15.4%
Cc1ccc(NC(=O)Cn2nnnc2-c2ccccc2N)cc1 -1.72%
O=c1c2cc3c(cc2nc2sc(Nc4ccc(F)cc4F)nn12)OCO3 7.5%
